In the supplement of paper PMC4967469:
By IC50 is meant the dose at which the fit gives 50% viability; fits outside the tested doses are given as limits. For AUC the same curve is integrated over the 256-fold range of doses and scaled to a fraction; the more sensitive the line, the further below 1. For some assays here: An inferred top dose comes from the curve model; the source does not state it.

Assays:
[1] = compound: FC(F)c1nc2ccccc2n1-c1nc(N2CCOCC2)nc(N2CCOCC2)n1 [ZSTK474]; assay: Viability of human cancer cell lines after 72 h of drug (GDSC screen)
Procedure: (§1)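 Human cancer cell lines in 384-well plates, medium with 10% serum, drug for 72 h over a 256-fold dose range (nine 2-fold or five 4-fold steps up to the top dose). Adherent lines were fixed and stained with the nucleic acid dye Syto60, suspension lines read with resazurin; signal relative to control wells, capped at 0 and 100%. One two-parameter sigmoid per drug and line, fitted in a mixed model over all curves with the slope shared within a line.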

[2] = compound: COCC(=O)NC/C=C/c1ccc2ncnc(Nc3ccc(Oc4ccc(C)nc4)c(C)c3)c2c1 [CP724714]; assay: as above; settings: top dose 10.24 µM; top dose inferred
Procedure: as §1

Q: Which AUC [1] does the source give for “8-MG-BA (glioma, adherent, top dose 5.12 µM)” here?
A: The AUC was 0.796.

Q: What about the IC50 [1] of the same cell line?
A: Its IC50 is 2.22 µM.

Q: Which results are given for “22RV1 (prostate, adherent, top dose 5.12 µM)”?
A: AUC [1]: 0.58; IC50 [1]: 0.559 µM

Q: For “42-MG-BA (glioma, adherent, top dose 5.12 µM)”, which AUC [1] is on record?
A: The AUC was 0.914.

Q: What about the IC50 [1] of the same cell line?
A: Its IC50 is greater than 5.12 µM.

Q: “201T (lung adenocarcinoma, adherent, top dose 5.12 µM)” was tested. Which AUC [1] did it give?
A: The AUC was 0.73.

Q: What about the IC50 [1] of the same cell line?
A: Its IC50 is 1.74 µM.

Q: What does the source list for “451Lu (melanoma, adherent, top dose 5.12 µM)”?
A: AUC [1]: 0.929; IC50 [1]: > 5.12 µM

Q: With “639-V (bladder, adherent, top dose 5.12 µM)” as the cell line, how does the AUC [1] read?
A: Its AUC is 0.982.

Q: And the IC50 [1]?
A: Its IC50 is greater than 5.12 µM.

Q: What does the source list for “647-V (bladder, adherent, top dose 5.12 µM)”?
A: AUC [1]: 0.759; IC50 [1]: 1.8 µM

Q: Which AUC [1] does the source give for “697 (lymphoblastic leukaemia, suspension, top dose 5.12 µM)” here?
A: Its AUC is 0.275.

Q: And the IC50 [1]?
A: The IC50 was 0.0862 µM.

Q: Which AUC [1] does the source give for “769-P (kidney, adherent, top dose 5.12 µM)” here?
A: The AUC was 0.68.

Q: And the IC50 [1]?
A: The IC50 was 1.07 µM.

Q: How did the AUC [1] turn out when “786-0 (kidney, adherent, top dose 5.12 µM)” was run?
A: Its AUC is 0.679.

Q: What about the IC50 [1] of the same cell line?
A: The IC50 was 0.969 µM.

Q: For “5637 (bladder, adherent, top dose 5.12 µM)”, which AUC [1] is on record?
A: The AUC was 0.72.

Q: What about the IC50 [1] of the same cell line?
A: The IC50 was 1.25 µM.

Q: Which AUC [1] does the source give for “8305C (thyroid, adherent, top dose 5.12 µM)” here?
A: The AUC was 0.883.

Q: What about the IC50 [1] of the same cell line?
A: The IC50 was greater than 5.12 µM.

Q: What does the source list for “8505C (thyroid, adherent, top dose 5.12 µM)”?
A: AUC [1]: 0.815; IC50 [1]: 3.02 µM

Q: “23132-87 (stomach, adherent, top dose 5.12 µM)” was tested. Which AUC [1] did it give?
A: The AUC was 0.681.

Q: What about the IC50 [1] of the same cell line?
A: The IC50 was 1.05 µM.

Q: “A3-KAW (B-cell lymphoma, suspension, top dose 5.12 µM)” was tested. Which AUC [1] did it give?
A: The AUC was 0.823.

Q: What about the IC50 [1] of the same cell line?
A: The IC50 was 2.24 µM.

Q: Which results are given for “A4-Fuk (B-cell lymphoma, suspension, top dose 5.12 µM)”?
A: AUC [1]: 0.793; IC50 [1]: 2.46 µM

Q: “A101D (melanoma, adherent, top dose 5.12 µM)” was tested. Which AUC [1] did it give?
A: Its AUC is 0.926.

Q: And the IC50 [1]?
A: The IC50 was greater than 5.12 µM.

Q: For “A172 (glioma, adherent, top dose 5.12 µM)”, which AUC [1] is on record?
A: The AUC was 0.978.

Q: What about the IC50 [1] of the same cell line?
A: Its IC50 is greater than 5.12 µM.

Q: For “A204 (rhabdomyosarcoma, adherent, top dose 5.12 µM)”, which AUC [1] is on record?
A: The AUC was 0.601.

Q: And the IC50 [1]?
A: Its IC50 is 0.657 µM.

Q: For “A253 (head and neck, adherent, top dose 5.12 µM)”, which AUC [1] is on record?
A: Its AUC is 0.908.

Q: What about the IC50 [1] of the same cell line?
A: Its IC50 is greater than 5.12 µM.

Q: Which results are given for “A375 (melanoma, adherent, top dose 5.12 µM)”?
A: AUC [1]: 0.835; IC50 [1]: 2.55 µM

Q: What does the source list for A388 (skin, adherent, top dose 5.12 µM)?
A: AUC [1]: 0.765; IC50 [1]: 2.15 µM

Q: How did the AUC [1] turn out when “A427 (non-small cell lung carcinoma, adherent, top dose 5.12 µM)” was run?
A: Its AUC is 0.923.

Q: What about the IC50 [1] of the same cell line?
A: Its IC50 is greater than 5.12 µM.

Q: How did the AUC [1] turn out when A431 (skin, adherent, top dose 5.12 µM) was run?
A: The AUC was 0.726.

Q: And the IC50 [1]?
A: Its IC50 is 1.36 µM.

Q: How did the AUC [1] turn out when “A498 (kidney, adherent, top dose 5.12 µM)” was run?
A: Its AUC is 0.86.

Q: And the IC50 [1]?
A: Its IC50 is greater than 5.12 µM.

Q: What does the source list for “A673 (rhabdomyosarcoma, adherent, top dose 5.12 µM)”?
A: AUC [1]: 0.742; IC50 [1]: 1.44 µM

Q: How did the AUC [1] turn out when “A704 (kidney, adherent, top dose 5.12 µM)” was run?
A: The AUC was 0.907.

Q: What about the IC50 [1] of the same cell line?
A: Its IC50 is greater than 5.12 µM.

Q: For “A2058 (melanoma, adherent, top dose 5.12 µM)”, which AUC [1] is on record?
A: The AUC was 0.806.

Q: And the IC50 [1]?
A: Its IC50 is 2.27 µM.

Q: For “A2780 (ovary, semi-adherent, top dose 5.12 µM)”, which AUC [1] is on record?
A: Its AUC is 0.535.

Q: And the IC50 [1]?
A: Its IC50 is 0.4 µM.

Q: For “ABC-1 (lung adenocarcinoma, adherent, top dose 5.12 µM)”, which AUC [1] is on record?
A: Its AUC is 0.702.

Q: What about the IC50 [1] of the same cell line?
A: Its IC50 is 1.35 µM.

Q: “ACHN (kidney, adherent, top dose 5.12 µM)” was tested. Which AUC [1] did it give?
A: The AUC was 0.784.

Q: What about the IC50 [1] of the same cell line?
A: Its IC50 is 2.51 µM.

Q: Which AUC [1] does the source give for “AGS (stomach, adherent, top dose 5.12 µM)” here?
A: The AUC was 0.871.

Q: And the IC50 [1]?
A: Its IC50 is 4 µM.

Q: Which AUC [2] does the source give for “COR-L311 (small cell lung carcinoma, suspension)” here?
A: Its AUC is 0.974.

Q: And the IC50 [2]?
A: Its IC50 is greater than 10.2 µM.

Q: What does the source list for “KASUMI-1 (acute myeloid leukaemia, suspension)”?
A: AUC [2]: 0.985; IC50 [2]: > 10.2 µM
